# Assay results as given in article PMC9911399, “Two distinct binding modes provide the RNA-binding protein RbFox with extraordinary sequence specificity”.
# Changes are numbered by the printed parent chain; changes in the protein carry UniProt numbers. The list shows a part of the results.
# T1: RBFOX1 RRM (Homo sapiens, UniProt Q9NWB1 109-208)
# T1 sequence: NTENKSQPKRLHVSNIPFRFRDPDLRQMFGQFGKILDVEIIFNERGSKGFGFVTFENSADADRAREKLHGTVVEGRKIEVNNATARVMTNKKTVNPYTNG
# B1: CGCUUCG (DNA:RNA)
# RNA: GGGAGACCGGAAUUCAGAUUGUCCCGCUUCGUUAAAUCCCGUCGUAGCCACCA
# DNA 1: CAATCTGAATTCCGGTCTCCC
# DNA 2: TGGTGGCTACGACGGGATT
# B2: ACGUAAG (DNA:RNA)
# RNA: B1 RNA with C25A, G26C, C27G, U29A, C30A
# DNA 1: CAATCTGAATTCCGGTCTCCC
# DNA 2: TGGTGGCTACGACGGGATT
# B3: ACAACAA (DNA:RNA)
# RNA: GGGAGACCGGAAUUCAGAUUGUCCACAACAAUUAAAUCCCGUCGUAGCCACCA
# DNA 1: CAATCTGAATTCCGGTCTCCC
# DNA 2: TGGTGGCTACGACGGGATT
# B4: ACCGCCA (DNA:RNA)
# RNA: B3 RNA with A27C, A28G, A30C
# DNA 1: CAATCTGAATTCCGGTCTCCC
# DNA 2: TGGTGGCTACGACGGGATT
# B5: CGCCAGA (DNA:RNA)
# RNA: B1 RNA with U28C, U29A, C30G, G31A
# DNA 1: CAATCTGAATTCCGGTCTCCC
# DNA 2: TGGTGGCTACGACGGGATT
# B6: UGAUAGA (DNA:RNA)
# RNA: B3 RNA with A25U, C26G, A28U, C29A, A30G
# DNA 1: CAATCTGAATTCCGGTCTCCC
# DNA 2: TGGTGGCTACGACGGGATT
# B7: GCCUAGC (DNA:RNA)
# RNA: B1 RNA with C25G, G26C, U29A, C30G, G31C
# DNA 1: CAATCTGAATTCCGGTCTCCC
# DNA 2: TGGTGGCTACGACGGGATT
# B8: CGCUCCA (DNA:RNA)
# RNA: B1 RNA with U29C, G31A
# DNA 1: CAATCTGAATTCCGGTCTCCC
# DNA 2: TGGTGGCTACGACGGGATT
# B9: AACUGCG (DNA:RNA)
# RNA: B1 RNA with C25A, G26A, U29G
# DNA 1: CAATCTGAATTCCGGTCTCCC
# DNA 2: TGGTGGCTACGACGGGATT
# Target: T1, RBFOX1 RRM
# Assay: EMSA; HiTS-Eq, 1 nM pool, 10 min; buffer printed only for the single-RNA assays: 10 mM Tris pH 7.5, 150 mM NaCl, 3.4 mM EDTA, 0.001% NP-40, 30 C
# Details: tags: His6 N-terminal (pET28a); label: 5' 32P
# Outline: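 A pool of RNA with 7 randomized nucleotides, 5′-radiolabelled and with DNA-annealed flanks, was equilibrated at 1 nM for 10 min in 50 µL with purified RbFox RRM, wild type or mutant, across increasing protein concentrations. Free RNA was separated by 8% native PAGE, excised, reverse-transcribed, barcoded by PCR and sequenced. Relative association constants were obtained from read-count changes of each RNA species versus the control reaction and normalised to the cognate motif.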
row,Binder,binding signal
1,B1,0.0157 KA relative to UGCAUGU
2,B2,0.0103 KA relative to UGCAUGU
3,B3,0.000964 KA relative to UGCAUGU
4,B4,0.00143 KA relative to UGCAUGU
5,B5,0.0109 KA relative to UGCAUGU
6,B6,0.0266 KA relative to UGCAUGU
7,B7,0.0103 KA relative to UGCAUGU
8,B8,0.00955 KA relative to UGCAUGU
9,B9,0.0113 KA relative to UGCAUGU
